In PubChem BioAssay AID720708 (National Center for Advancing Translational Sciences (NCATS), 2013):
The whole screen tested about 360,000 compounds, of which about 660 (0.18%) were called active. The shares of active, inactive and inconclusive entries below differ from those in the screen. Calls follow the shape of the dose curve; as a rule, active = well fitted inhibition curve with a large enough effect; inconclusive = small, poorly fitted or top-dose-only effect; inactive = no such curve, though single readings can be large or run the other way. No potency is given beside an inconclusive call; the fits are too rough.

target: Rap guanine nucleotide exchange factor 4 (Homo sapiens) (UniProt Q8WZA2); assay: qHTS for Antagonist of cAMP-regulated guanine nucleotide exchange factor 2 (EPAC2): primary screen; details: EPAC2 GEF exchange of Rap1B-BODIPY-GDP, fluorescence; series mostly up to 114 µM; also: nearly all actives have a fitted effect of over 45% in size
Potency is read from the fitted curve at half-maximal effect; tags tell the direction and shape of the fitted curve.

Chain of UniProt Q8WZA2 (Q8WZA2 whole entry, looked up): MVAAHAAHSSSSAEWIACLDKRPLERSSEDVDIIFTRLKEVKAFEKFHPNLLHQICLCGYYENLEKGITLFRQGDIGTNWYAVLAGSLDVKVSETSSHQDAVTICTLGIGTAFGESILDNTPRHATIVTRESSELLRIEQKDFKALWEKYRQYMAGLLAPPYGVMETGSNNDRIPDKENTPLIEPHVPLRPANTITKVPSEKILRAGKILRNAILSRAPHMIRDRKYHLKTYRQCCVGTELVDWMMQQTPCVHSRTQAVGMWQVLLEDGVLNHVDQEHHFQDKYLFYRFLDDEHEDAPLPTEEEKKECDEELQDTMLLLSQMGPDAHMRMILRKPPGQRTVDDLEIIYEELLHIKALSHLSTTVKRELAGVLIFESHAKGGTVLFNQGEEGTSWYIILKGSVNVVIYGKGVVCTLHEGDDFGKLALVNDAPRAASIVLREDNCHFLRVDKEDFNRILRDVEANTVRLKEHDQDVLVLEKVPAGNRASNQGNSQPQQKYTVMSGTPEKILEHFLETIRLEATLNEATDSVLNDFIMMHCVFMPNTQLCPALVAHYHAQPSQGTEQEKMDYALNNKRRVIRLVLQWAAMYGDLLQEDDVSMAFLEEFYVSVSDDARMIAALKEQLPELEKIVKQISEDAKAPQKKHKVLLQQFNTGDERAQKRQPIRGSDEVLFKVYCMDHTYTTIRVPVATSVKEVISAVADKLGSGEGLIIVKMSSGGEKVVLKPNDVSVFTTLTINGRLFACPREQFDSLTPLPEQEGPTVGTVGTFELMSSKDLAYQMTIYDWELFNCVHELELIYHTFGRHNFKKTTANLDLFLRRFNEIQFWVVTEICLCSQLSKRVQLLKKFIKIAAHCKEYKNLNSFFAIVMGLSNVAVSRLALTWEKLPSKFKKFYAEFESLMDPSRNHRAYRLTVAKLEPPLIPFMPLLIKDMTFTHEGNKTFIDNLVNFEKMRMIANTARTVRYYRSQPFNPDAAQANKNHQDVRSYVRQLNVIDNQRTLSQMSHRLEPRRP

SMILES	Potency
CCCCCCCCN1C(=O)[C@H](CC(=O)N2CCC(c3ccccc3)CC2)C[C@@]2(C(=O)OC)CC(C)(C)CC=C12	inactive
CC(=O)N1CCOc2ccc(S(=O)(=O)N(C)c3cccc(C)c3)cc21	inconclusive [inhibitor, single point]
COC(=O)c1ccc(C(=O)OC)c(NC(=O)COC(=O)c2ccc(OC)c(OC)c2OC)c1	inconclusive [inhibitor, full curve, poor fit]
O=C(N/N=C/c1cc(Br)c(O)c([N+](=O)[O-])c1)C(O)(c1ccccc1)c1ccccc1	inconclusive [inhibitor, partial curve]
Cc1ccc(C)c(NC(=S)NNc2ccc(F)cc2F)c1	inactive
CCOc1cc(Br)c(CC(=O)NC2CCCCCC2)cc1OCC	inactive
CCOC(=O)Cc1nn(Cc2ccccc2)c(=O)c2ccccc12	inconclusive [inhibitor, partial curve]
CC(CC(=O)Nc1ncc([N+](=O)[O-])s1)c1ccccc1 (centres undefined)	inconclusive [inhibitor, single point]
Cc1ccc(S(=O)(=O)N2CCOC2CNC(=O)C(=O)NCC(C)C)cc1 (centres undefined)	inactive
O=C(CCc1c[nH]c2ccccc12)N1CCCCCCC1	inconclusive [inhibitor, partial curve]
CCOC(=O)C1=C(N)OC2=C(C(=O)CCC2)C1c1sccc1C (centres undefined)	inconclusive [inhibitor, partial curve]
CSc1nc(N2CCOCC2)c2c3c(sc2n1)CCC3	inconclusive [inhibitor, full curve]
Cc1nc(NS(=O)(=O)c2ccc(Cl)s2)c2c3c(sc2n1)CCCC3	inconclusive [inhibitor, partial curve]
CC(=O)Oc1ccccc1C1=NN(C(C)=O)C(c2ccccc2)C1 (centres undefined)	inconclusive [inhibitor, partial curve]
CCOc1ccccc1CN1CCC(CO)(CCOc2ccccc2)CC1	inactive
Fc1ccccc1N1CCN(C2CCCN(Cc3cccc(C(F)(F)F)c3)C2)CC1 (centres undefined)	inconclusive [inhibitor, partial curve]
Cc1oc2cc([N+](=O)[O-])c(O)c([N+](=O)[O-])c2c1C(=O)c1ccc(Cl)cc1	inconclusive [inhibitor, partial curve]
O=c1[nH]nc(SCc2ccccc2)c(=O)[nH]1	inactive
O=C(O)c1ccc(S(=O)(=O)/N=C2\C=C(Nc3ccccc3F)C(=O)c3ccccc32)cc1	inconclusive [inhibitor, partial curve]
